Laboratory results reported in EP1214397B1, “METHOD FOR THE SELECTIVE PROTECTION OF PROLIFERATING NORMAL CELLS AND THE SELECTIVE ERADICATION OF TUMOR CELLS HAVING AN INACTIVE P53 PATHWAY” (UNIVERSITA' DEGLI STUDI DI ROMA "LA SAPIENZA", priority 1999, dated 2001).

Key:
C3H10T1/2v-src/v-myc = assay: Focus-forming assay, culture of tumor cells alone (Examples 3, 9); type: cell-based, mouse; conditions: C3H10T1/2 v-src/v-myc alone, 5×10^2 cells per plate; percentage of treated with respect to untreated (=100); 400 nM CD T0-T84; class B drug T24-T72 (40 µM 3FT, 80 µM 2ClAd, 40µM Ara C)
[1] = test system: C3H10T1/2 cells reversibly arrested in G0/G1 by growth factor deprivation; conditions: mouse, 48 h, 80 µM
Method: The choice of carrying out the assays on cells arrested in the G0/G1 phase by growth factor deprivation rather than on cells treated with cytochalasin D or analogues thereof was made for ease of assaying.
In a first assay 40µM 3FT for 48 h, in a second assay Ara C 40µM for 48 h, in a third assay 80µM 2ClAd for 48 h, in a fourth assay 100µM 6 thioguanine (6Thg) for 48 h, in a fifth assay 1µg/ml Doxorubicine (Doxo) for 48 h have been administered on the G0/G1 arrested C3H10T1/2 cells.
The above concentrations are the minimum for killing proliferating cells calculated on the basis of cell cycle duration.
After release from drug treatment, cells were washed 2x and left in low serum for other 12 h, to allow washing of residual drugs under non-proliferating conditions.
After the 24 h period in low serum, proliferation medium (DMEM +10% FCS), supplemented with 20µM BrdU in order to mark the DNA-synthesizing cells, has been additioned to the cell culture. After a 24-h stimulation, the cells have been fixed and processed as reported in Grossi et al. 1991 (18). The percentage of DNA-synthesizing cells in the 24-h labeling period has been detected by immunofluorescence, as reported in Grossi et al. 1991 (18).
The culture and assay conditions are those described in example 10, except for the pharmacological treatment, which in the present assay series consists of the following.

tumor cells in culture = assay: Dose/response: concentration eradicating proliferating / tumor cells (CBCT); type: cell-based
Method: Concerning the concentration of class B compound (CBCT), it is comprised in a range that should be calculated as a function of the CT, the target tumor cell type and the half-life in culture of the administered class B compound.
In particular, for the trifluorothymidine this concentration is greater than or equal to 40 µM, in particular comprised in the range 10µM - 800 µM, preferably 50 µM; for the cytarabine, this concentration is generally greater than or equal to 40 µM, in particular comprised in the range 40 µM - 600 µM, preferably 40 µM; for the 6-thioguanine, this concentration is generally greater than or equal to 50 µM, in particular a concentration comprised in the range 50 µM - 600 µM, preferably 100 µM.
In fact, by virtue of the protective action of the class A compound on the normal cells, such concentration may be increased up to 10-20 fold the mentioned minimum concentration thereof.

[2] = test system: mixed culture of C3H10T1/2 and C3H10T1/2v-src/v-myc; assay: Focus-forming assay, mixed culture of normal and tumor cells (Examples 3, 9)
[3] = test system: C3H10T1/2v-src/v-myc cells; type: cell-based, mouse; conditions: 4µCi/ml tritiated thymidine 5 h after 24 h drug (3000 nM CB, 400 nM CD, 650 nM Latrunculin B, 700 nM Jasplakinolide, 100 nM Condramide); control 505 cpm/µg
Text: In order to verify a possible interference on 3FT uptake by tumor cells, the compounds mentioned in example 7 have been assayed on C3H10T1/2v-src/v-myc cells, measuring the uptake of tritiated thymidine. It is well known in fact that the uptake mechanism of the latter and that of 3FT (and generally of antimetabolites) are the same (6).
Cells have been plated in a 24-well plate, with a 5x10^4 cells/well and the assays have been carried out under standard culture conditions, as described in example 1.
In a first assay 3000 nM CB for 24 h, in a second assay 400 nM CD for 24 h, in a third assays 650 nM Latrunculin B for 24 h, in a fourth assay 700 nM Jasplakinolide for 24 h and in a fifth assay 100 nM Condramide for 24 h, have been administered on the C3H10T1/2v-src/v-myc.
After said administrations, a 4µCi/ml tritiated Thymidine uptake has been carried out for 5 h for each assay, the above mentioned compounds being still present. Cells have been therefore washed 2x with PBS, extracted with 5% cold trichloroacetic acid and subsequently NaOH-lysed.
The various samples once additioned with scintillation liquid, have been analyzed in a β-counter. The emission values, normalized for the amount of proteins in each sample (quantified by Lowry method) are expressed in count values for min/microgram protein in column 3. As controls there have been considered: • a first C3H10T1/2v-src/v-myc cell culture let free to proliferate for the overall assay (12 h + 24 h + 5 h) the radioactivity thereof being determined at the β-counter. • a second C3H10T1/2v-src-myc cell culture let free to proliferate for the initial 12 h and for the pharmacological treatment assay (12 h + 24 h), then subjected to the uptake of 4µCi/ml tritiated thymidine for 5 h and subsequently subjected to uptake determination at the β-counter.

normal cells = assay: Dose/response: concentration arresting normal cells in the intermitotic phase (CAP); type: cell-based; conditions: standard conditions
Method: It generally results in cell cycle arrest at the binucleate stage in at least 40% of class A compounds treated proliferating normal cells, using the minimal drug concentration (i.e. sufficient to reversible induce its effects, on target cells, without causing significant damage, experimentally defined by dose/response curves), giving the above result without significant toxicity and an incubation time generally ranging from 12 to 48 hours depending on cell type.
As to the CAP parameter, the corresponding value is a class A compound concentration causing the arrest of at least the 40% of normal cells in the intermitotic stage; such concentration is experimental deduced by dose/response experiments that define the appropriate value range for different cell types and compounds.
For the above class A compounds, under standard conditions this value ranges within 1 nM to 40 µM concentrations.. Under standard conditions for instance, the CAP value for cytochalasin D is preferably comprised within the range 20 nM-2 µM, and in a preferred embodiment it is of 400 nM.; for the dihydrocytochalasin B, it is comprised in the range 600 nM - 8µM, and in a preferred embodiment it is of 2µM; for the jasplakinolide, it is comprised in the range 50 nM - 3µM and in a preferred embodiment it is of 700nM; for the latrunculin B it is comprised in the range 500nM - 2 µM and in a preferred embodiment it is of 650nM; for the chondramide B, it is comprised in the range 10 - 800 nM and in a preferred embodiment it is of 100nM. Said preferred concentrations are the CAP value corresponding to the minimum concentration under standard conditions required for reaching the arrest in intermitotic phase of the normal cells to be protected (minimum functional concentration), but could also be higher.
In the light of these tests, the CAP and CACT values to be assigned to several class A compounds as the concentration range yielding the cytodieresis arrest, and, within said concentration range, the value of the minimum concentration required for attaining this effect, forming the preferred embodiment, has been determined. These values are those reported in the summary of the invention.

C3H 10T1/2(v-src/v-myc) = assay: Colony forming assay, interference with 3FT toxic effects on tumor cells (Example 6); type: cell-based, mouse; conditions: 5×10^2 cell/60mm; 400 nM CD or 3 µM CB T0-T84; 30 µM 3FT T24-T72; untreated 111
Method: In order to verify any possible interference between CD and 3FT actions on tumor cells, a series of colony forming assays has been carried out on C3H 10T1/2(v-src/v-myc).
The cells have been therefore plated on 60mm plates at a 5×10^2 cell/60mm density, at the culture conditions described in example 3, and the initial time of 12 hours have been subjected to the following treatments.
After the above administrations, cells were treated as described in example 3.

C3H 10T1/2v-src/v-myc = assay: Colony formation assay, monoculture (Example 4; Table 9); type: cell-based, mouse; conditions: C3H10T1/2 v-src/v-myc
Text: (§1) In order to quantify the effects of the combined CD/3FT use of the above example 3, the first, second and third assay series described in example 4 has been carried out on monocultures at a cell density allowing countable colonies.
(§2) The culture conditions, compounds concentrations, and treatments are the same described in example 3, with the exception of the cell system used have been for the first assay series a monoculture of C3H 10T1/2 cells at the clonal densities of 1×10^3, 5×10^3 and 1×10^4, for the second assay series a monoculture of C3H 10T1/2v-src/v-myc cells at the clonal densities of 5×10^2, 1×10^3 and 5×10^3, and for the third assay series a monoculture of L cells at the clonal densities of 5×10^2, 1×10^3 and 5×10^3.
(§3) The results of the assay series described in example 4 above carried out using dihydrocytochalasin B (referred to as H2CB in the table) and 3FT is reported in the following table 9.

C3H10T1/2 = assay: as above; type: cell-based, mouse
Text: as §1, §2, §3

## Nc1nc(Cl)nc2c1ncn2[C@H]1C[C@H](O)[C@@H](CO)O1 [2ClAd]
C3H10T1/2v-src/v-myc
  number of transformation foci: 0
[1]
  percentage of cells entering S phase (maintained proliferation potential): 3%
  percentage of cells entering S phase compared to the untreated control: 6%
  percentage of residual adherent cells: 97%
Tumor cells in culture; within the time of the combined treatment (48 h)
  minimum concentration for killing at least 90% of the proliferating cells: 80 µM
[2]; mixed culture, second entry of the cell (tumor cells), percentage of treated with respect to untreated (=100), 400 nM CD T0-T84, class B drug T24-T72 (40 µM 3FT, 80 µM 2ClAd, 40µM Ara C)
  number of transformation foci: 0 0
[2]; monolayer reformed after the CD/2ClAd treatment
  monolayer saturation density (number of cells per surface unit) lower with respect to the other cases: about 1/3
[2]; normal cell monolayer reforming after combined treatment with CD (description)
  proliferation restart time: 14 days

## Nc1nc2nc[nH]c2c(=S)[nH]1 [6ThG, 6-thioguanine]
Tumor cells in culture; standard conditions
  CBCT, minimum functional concentration required to eradicate tumor cells in culture: 100 µM

## C/C1=C\[C@H](C)C[C@H](C)OC(=O)C[C@H](c2ccc(O)cc2)NC(=O)[C@@H](Cc2c(Br)[nH]c3ccccc23)N(C)C(=O)[C@H](C)NC(=O)[C@@H](C)C1 [Jasplakinolide]
[3]
  tritiated thymidine uptake, emission values: 559 cpm/µg
Normal cells
  CAP, minimum functional concentration for arrest in intermitotic phase of normal cells: 700 nM

## C/C1=C/C(=O)O[C@@H]2C[C@@H](CC[C@H](C)/C=C\CC1)O[C@@](O)([C@@H]1CSC(=O)N1)C2 [Latrunculin B]
[3]
  tritiated thymidine uptake, emission values: 283 cpm/µg
Normal cells
  CAP, minimum functional concentration for arrest in intermitotic phase of normal cells: 650 nM

## C=C1[C@@H](C)[C@H]2[C@H](Cc3ccccc3)NC(=O)[C@]23OC(=O)/C=C/[C@H](O)CCC[C@@H](C)C/C=C/[C@H]3[C@@H]1O [cytochalasin B]
C3H 10T1/2(v-src/v-myc)
  Colonies: 41
[3]
  tritiated thymidine uptake, emission values: 223 cpm/µg

## C=C1[C@@H](C)[C@H]2[C@H](Cc3ccccc3)NC(=O)[C@]23OC(=O)CC[C@H](O)CCC[C@@H](C)C/C=C/[C@H]3[C@@H]1O [dihydrocytochalasin B, 21,22-dihydrocytochalasin B]
C3H 10T1/2v-src/v-myc; 1×10^3 cells, class A drug T0-T84, 40 µM 3FT T24-T72
  number of colonies: 38
C3H 10T1/2v-src/v-myc; 5×10^2 cells, class A drug T0-T84 (400 nM CD or H2CB), 40 µM 3FT T24-T72
  number of colonies: 21
C3H 10T1/2v-src/v-myc; 5×10^3 cells, class A drug T0-T84, 40 µM 3FT T24-T72
  number of colonies: Confluent
C3H10T1/2; C3H10T1/2, 1×10^3 cells, class A drug T0-T84 (400 nM CD or H2CB), 40 µM 3FT T24-T72
  number of colonies: 58
C3H10T1/2; C3H10T1/2, 1×10^4 cells, class A drug T0-T84, 40 µM 3FT T24-T72
  number of colonies: Confluent
C3H10T1/2; C3H10T1/2, 5×10^3 cells, class A drug T0-T84, 40 µM 3FT T24-T72
  number of colonies: Confluent
Normal cells
  CAP, minimum functional concentration for arrest in intermitotic phase of normal cells: 2000 nM
